Assay results as given in PMC12136788.
The other results are listed elsewhere or left out.

T1: UNK ZnF1-6 (called full-length) (human, UniProt Q9C0B0 30-357)
T1 sequence: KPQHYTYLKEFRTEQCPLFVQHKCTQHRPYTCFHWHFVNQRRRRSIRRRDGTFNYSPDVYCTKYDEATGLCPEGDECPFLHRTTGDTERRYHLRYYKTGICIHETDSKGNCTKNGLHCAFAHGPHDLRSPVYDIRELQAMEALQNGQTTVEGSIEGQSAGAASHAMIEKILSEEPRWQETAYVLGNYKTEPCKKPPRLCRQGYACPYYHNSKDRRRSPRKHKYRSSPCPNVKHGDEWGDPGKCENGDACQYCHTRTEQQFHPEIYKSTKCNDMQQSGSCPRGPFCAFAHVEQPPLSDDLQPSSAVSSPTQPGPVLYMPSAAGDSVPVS

B1: chr11:118750849:118750950:-|3pUTR|ENSG00000110367|msi1|total|mutant (ssRNA)
RNA: GGGAGUUCUACAGUCCGACGAUCAUUCCCGAAAGUACUUUGGCCUCGUGCUGCCGAGAGCAGAUUUCUAUGGUACCCUGUGUCCGUAAAGGGGCCCAGAAAUCUGGGAUGUACUGUUUGCUGCCACACUGUCUCAUCCCGUACCAACAGAGGAUUGAGCAUCA
B2: ENSG00000124766:be:win_1701|3pUTR|ENSG00000124766|bound_else_gene|NA|bound_elsewhere_windowed (ssRNA)
RNA: GGGAGUUCUACAGUCCGACGAUCCUGUGAUUGUUGUUAUUGAUGUUGUUGUUGAUGGCAAAAAAAAAAAAGCGACUUCGAGUUUGCUCCCCUUUGCUUGAAGAGACCCCCUCCCCCUUCCAACGAGCUUCCGGACUUGUCUGCCAACAGAGGAUUGAGCAUCA
B3: ENSG00000144824:stop:overlap|stop_codon|ENSG00000144824|stop_codon|NA|stop_codon (ssRNA)
RNA: GGGAGUUCUACAGUCCGACGAUCUGCGGAUCUGGAUGGAUGUUAUAGUUACGGGGGCAGAAGGUUACACUCACUUCUUGUUGUAGUGAACUGAGGCAACAGUCCACUUCAGGGCAGACGGCAAUAAUCUCUUACAAGAAUGAACAACAGAGGAUUGAGCAUCA
B4: chr10:119167843:119167906:-|3pUTR|ENSG00000165672|msi1_unk|FALSE|overlapping (ssRNA)
RNA: GGGAGUUCUACAGUCCGACGAUCUGCAUGAUCCCUCAUCCCUGAAAUUGAGUUUAUGUAGUCAUUUUACUUAUUUUAUUCAUUAGCUAACUUUGUCUAUGUAUAUUUCUAGAUAUUGAUUAGUGUAAUCGAUUAUAAAGGAUACAACAGAGGAUUGAGCAUCA
B5: chr1:112701350:112701454:-|3pUTR|ENSG00000155366|unk|FALSE|unique (ssRNA)
RNA: GGGAGUUCUACAGUCCGACGAUCGGCUCCAUGCUGAAGGCUCCCAUUUUCAGUUCCCUCCUGCCCAGGACUGCAUUGUUUUCUAGCCCCGAGGUGGUGGCACGGGCCCUCCCUCCCAGCGCUCUGGGAGCCACGCCUAUGCCCCAACAGAGGAUUGAGCAUCA
B6: ENSG00000110756:stop:overlap|stop_codon|ENSG00000110756|stop_codon|NA|stop_codon (ssRNA)
RNA: GGGAGUUCUACAGUCCGACGAUCGGGCCUUGAUACAAAGCAUGCUUGAAAAAUGCGAUCGGUUUCUCUGGUCCCAGCAGGCCUAGUGGGAGAAGAUUCAGCAGGAUGUCAUGACAUUUUGAGAAAAACUAAAUCAUGCUCCUGCAACAGAGGAUUGAGCAUCA
B7: chr20:50583650:50583751:+|3pUTR|ENSG00000196396|msi1|FALSE|unique (ssRNA)
RNA: GGGAGUUCUACAGUCCGACGAUCUUCCUAAGCCUGUUGCUGAAGUCAUUGUCGCUCAGCAAUAGGGUGCAGUUUUCCAGGAAUAGGCAUUUGCCUAAUUCCUGGCAUGACACUCUAGUGACUUCCUGGUGAGGCCCAGCCUGUCAACAGAGGAUUGAGCAUCA
B8: ENSG00000197555:stop:overlap|stop_codon|ENSG00000197555|stop_codon|NA|stop_codon (ssRNA)
RNA: GGGAGUUCUACAGUCCGACGAUCACGCCUCGGACAAGCUGAAGAAGUUCACAGAAUGGGUCUUCAACACCAUAGACAUGAGCUAGGGAAGGCUGAGGAGGACAGGAGAAGGGCCCAGACACUCCCUCCAGUGAGUGUCCUGCACAACAGAGGAUUGAGCAUCA
B9: chr4:183512276:183512377:+|3pUTR|ENSG00000168556|unk|total|mutant (ssRNA)
RNA: GGGAGUUCUACAGUCCGACGAUCCUGCUUGUUUUGGGAAAAAAAAAUGCUUUUUUUCUCUUCCCGCUCUCCUGUGUGACUUUCCGGCAUGUCAUUUCACCUUGUCUGGGUGUCAGGUCAUUCACCUGUAAAAUGAGUUGGCUUCAACAGAGGAUUGAGCAUCA
B10: chr2:15946816:15946917:+|3pUTR|ENSG00000134323|unk|total|mutant (ssRNA)
RNA: GGGAGUUCUACAGUCCGACGAUCUAUAUGCCUUUUUCCCCGCCUGUUUCUUCCUGUUAAUGUAUUUGUUCAUGUUUGGUGCACCGAACUGGGUAAAUGCAAAGUUCUGUGUUUAAUUUCUUCAAAAUGUAUAUAUUCCGUGCUCAACAGAGGAUUGAGCAUCA
B11: chr12:131960804:131960905:+|CDS|ENSG00000183495|unk|FALSE|bound_elsewhere (ssRNA)
RNA: GGGAGUUCUACAGUCCGACGAUCCCCUCAGCAAGCCCGUCGGCACCCCAGUCUCCCAGUUAUCAAAUACAGCAGCUGAUGAAUAGGAGCCCUGCAACCGGGCAGAACGUGAACAUCACCCUGCAGAGCGUGGGCCCUGUCGUCCAACAGAGGAUUGAGCAUCA
B12: ENSG00000111530:stop:overlap|stop_codon|ENSG00000111530|stop_codon|NA|stop_codon (ssRNA)
RNA: GGGAGUUCUACAGUCCGACGAUCUCUUUGAAAGUAUCCAGAAAGAUUCAUCAUCUACUAACUUGGAAUCAAUGGACACUAGUUAGAUGUUUGUUCACCAUGGGGACCAUUACAUAUGACCAUACAAUGCACUGAAUUGACAGGCAACAGAGGAUUGAGCAUCA
B13: chr17:18209558:18209659:+|3pUTR|ENSG00000091542|msi1|FALSE|unique (ssRNA)
RNA: GGGAGUUCUACAGUCCGACGAUCGGUAGCUUCUAUCCACUCAGAUCCUGGAAGGCAGCAAGGUUUUGUGGAUCUAGAUUCAUUAGGAAUGUCUUCUUGUCAGCCAGGCCAGGACCCGGGCUUGCCAAGAGCAGAGGCCCUCCCCAACAGAGGAUUGAGCAUCA
B14: chr10:71816509:71816622:-|3pUTR|ENSG00000197746|msi1_unk|total|mutant (ssRNA)
RNA: GGGAGUUCUACAGUCCGACGAUCUGCCUACAUGUCCCUGGCUGUUGAGGCGCUGCUUCAGCCUGCACCCCUCCCUUGUCUCACCGAUGCUCCUUUUGACCUUUUCAAAUAAAUAUGGAUGGCGAGCUCCCCGGCCUCUGGCUUCAACAGAGGAUUGAGCAUCA
B15: ENSG00000257103:stop:overlap|stop_codon|ENSG00000257103|stop_codon|NA|stop_codon (ssRNA)
RNA: GGGAGUUCUACAGUCCGACGAUCGUCGUGGGGGCCGGGAGUUUGCGGAUUUUGAAUAUAGGAAAGACAACAAAGUUGCUGCAUAGUCUACAAACAAGUCUCUGAAAAUAGGUGAAUUUCUAGCUCUUCAUGGUCCUGAACAUUCAACAGAGGAUUGAGCAUCA
B16: chr1:113797602:113797710:-|CDS|ENSG00000081019|unk|FALSE|bound_elsewhere (ssRNA)
RNA: GGGAGUUCUACAGUCCGACGAUCUUUAUGACUCACCAGGAACAUUCUAUUCGUAGAAAUUUCUUAAAAACAGGUACUAAAUUUAGCAACUUUAUUCAUGAGGAACACCAGUCCAAUGGUGGUGCUCUUGUCCUUCAUGCUUACCAACAGAGGAUUGAGCAUCA
B17: chr2:189033597:189033698:-|3pUTR|ENSG00000204262|msi1|total|mutant (ssRNA)
RNA: GGGAGUUCUACAGUCCGACGAUCAAGAGUGGGGUAUACCGAGCCACAACACAUGUUUAUUUUGCUUGGCUGCAGUUGAAAAACCGAAAUCCGUGCCCUUUUGUGACCUCUCAUUCCAAGAUUGUCAAUUAAAAAUGAGUUUAACAACAGAGGAUUGAGCAUCA
B18: chr8:8785477:8785578:-|3pUTR|ENSG00000147324|msi1|FALSE|unique (ssRNA)
RNA: GGGAGUUCUACAGUCCGACGAUCUGUUUAUCUUUAUUUUUAUAAUAUGCAAAUACAUUUAAAUUUAUACAGUUUGAAGCUUCUAGCGUUAGUUCACACUGGGUGCAAUAUUCUGCAUGAGAACUGUGCCAAGAUGGGGCUGAUCAACAGAGGAUUGAGCAUCA
B19: chr21:46004801:46004902:+|3pUTR|ENSG00000142156|msi1|total|mutant (ssRNA)
RNA: GGGAGUUCUACAGUCCGACGAUCAGACUGGGGCCUGGACUGGACAUGAGAGCCCCUUGGUGCCACAGAGGGCUGUGUCUUACCCGAAACAACGCAAACCUCUCCUUCCUCAGAACCGUGAUGUGUUCGACGUUUUAUCAAAGGCAACAGAGGAUUGAGCAUCA
B20: chr1:23559171:23559278:-|CDS|ENSG00000117318|unk|total|mutant (ssRNA)
RNA: GGGAGUUCUACAGUCCGACGAUCAACCACUGCUACUCCCGCCUGCGGGAACUGGUACCCGGAGUCCCGAGAGGCACUCAGCUCCGCCAGGUGGAAAUCCUACAGCGCGUCAUCGACUACAUUCUCGACCUGCAGGCCGUCCUGCAACAGAGGAUUGAGCAUCA
B21: chr17:80395157:80395266:+|3pUTR|ENSG00000173821|unk|total|mutant (ssRNA)
RNA: GGGAGUUCUACAGUCCGACGAUCCUUCAAAGCCUUAACUGUCAAAUCUUGCAUUAUCUUGUUUGUACAGAAAUAUACUGGCCCCGCAGAGGCAAAAAAAAAAAAAAUGAAUUUUAUUUUACUUGUCACACCUGUCUUAAUAAACAACAGAGGAUUGAGCAUCA
B22: chr2:37644049:37644150:-|3pUTR|ENSG00000163171|msi1|total|mutant (ssRNA)
RNA: GGGAGUUCUACAGUCCGACGAUCUCCGGACAACUAACCAAGCCGACGAAACAAGUUCCCCCCGGCAGGGGUGUCCAAUAUUUCCGCUUCCCUGGACCGCAUUGGAAGAAUUUUCUUGGGCCACAUGUAAAACACACUAACACUCAACAGAGGAUUGAGCAUCA

biological target: T1, UNK ZnF1-6 (called full-length); assay: nsRBNS (natural sequence RNA bind-n-seq); RBNS binding buffer (assumed for nsRBNS): 25 mM Tris pH 7.5, 150 mM KCl, 3 mM MgCl2, 0.01% Triton X-100, 500 ug/ml BSA, 20 U/ml SUPERase-In, 4 C; UNK is unkempt and MSI1 is Musashi-1; names of the RNAs are library labels; protein concentration not given here; high values mean tight binding

Binder | binding signal [enrichment R]
B1 | 0.836
B2 | 0.598
B3 | 1.02
B4 | 1.29
B5 | 0.843
B6 | 0.578
B7 | 0.407
B8 | 0.602
B9 | 0.352
B10 | 0.563
B11 | 1.12
B12 | 0.937
B13 | 1.15
B14 | 1.17
B15 | 0.381
B16 | 0.721
B17 | 0.364
B18 | 0.688
B19 | 0.902
B20 | 0.768
B21 | 0.678
B22 | 0.537
